The values that follow come from the antibiotic and cytotoxicity screens of Wong et al. (2023).

The list shows a part of the results.

The assay has as its system S. aureus RN4220. Description: growth inhibition call (relative growth <= 0.2). The settings on record: 50 µM.
As for `NC(=O)NC1NC(=O)NC1=O` (stereo not given), the growth inhibition call was “inactive”.
As for `Cc1noc(C)c1NC(=O)Nc1ccc2c(c1)C(=O)N([C@@H](C)CO)C[C@H](C)[C@H](CN(C)CC1CCCCC1)OCCCC[C@@H](C)O2`, the growth inhibition call is “inactive”.
The value for `C[C@@H]1CN([C@H](C)CO)C(=O)CCCn2cc(nn2)CO[C@@H]1CN(C)C(=O)Nc1ccnc(N2CCOCC2)c1` was “inactive”; that for `C[C@@H]1CN([C@@H](C)CO)S(=O)(=O)c2ccc(C#Cc3ccccn3)cc2O[C@H]1CN(C)Cc1ccccc1` was “inactive”.
The value for `C[C@H](CO)N1C[C@H](C)[C@H](CN(C)C(=O)Nc2cccc3ccccc23)Oc2ccc(NC(=O)Nc3ccccc3)cc2C1=O` was “inactive”.
The value for `CC(C)(C)C(=O)C(Oc1ccc(Cl)cc1)n1ccnc1` (stereo not given) was “inactive”.
For the compound `CS(=O)(=O)N1C[C@H](O)COC[C@H]2O[C@@H](CC(=O)NCc3ccccc3)CC[C@@H]21`, the growth inhibition call is “inactive”.
The value for `C[C@H](CO)N1C[C@H](C)[C@H](CN(C)S(=O)(=O)c2cccs2)Oc2c(NS(C)(=O)=O)cccc2C1=O` was “inactive”; that for `O=C(C[C@H]1CC[C@H]2[C@@H](COC[C@@H](O)CN2S(=O)(=O)c2ccc(Cl)cc2)O1)N[C@@H]1CCN(Cc2ccccc2)C1` was “inactive”.
The value for `Cc1noc(C)c1S(=O)(=O)Nc1ccc2c(c1)C(=O)N([C@@H](C)CO)C[C@H](C)[C@H](CN(C)C)OCCCC[C@@H](C)O2` was “inactive”.
The value for `C[C@H]1CN([C@@H](C)CO)S(=O)(=O)c2ccc(C#Cc3ccccn3)cc2O[C@@H]1CN(C)Cc1ccccc1` was “inactive”.
Turning to `O=P(O)(O)C(Sc1ccc(Cl)cc1)P(=O)(O)O`, the growth inhibition call is “inactive”.
The value for `COc1ccc(S(=O)(=O)Nc2ccc3c(c2)C(=O)N([C@@H](C)CO)C[C@H](C)[C@H](CN(C)CC2CC2)O3)cc1` was “inactive”; that for `COc1ccc2c3c(n(c2c1)C)[C@H](CO)N(C[C@]13CCN(CC1)C(=O)c1ccncc1)C(=O)C1CCOCC1` was “inactive”; that for `C[C@H]1CCCCO[C@@H](CN(C)C(=O)Nc2ccccc2)[C@@H](C)CN([C@@H](C)CO)C(=O)c2cc(NS(=O)(=O)c3cccs3)ccc2O1` was “inactive”.
Turning to `O=C(C[C@H]1C=C[C@H](NC(=O)CN2CCOCC2)[C@H](CO)O1)NC1CCCCC1`, the growth inhibition call was “inactive”.
The value for `O=C(C[C@H]1CC[C@H]2[C@@H](COC[C@@H](O)CN2C(=O)Nc2ccc(Cl)c(Cl)c2)O1)NCc1ccncc1` was “inactive”; that for `COc1cccc(NC(=O)N(C)C[C@@H]2OCc3ccccc3-c3c(n(C)c4ccccc34)C(=O)N([C@@H](C)CO)C[C@@H]2C)c1` was “inactive”.
Consider `C[C@@H]1CN([C@@H](C)CO)S(=O)(=O)c2ccc(C3=CCCCC3)cc2O[C@@H]1CN(C)C(=O)C1CCOCC1`, for which the growth inhibition call is “inactive”.
As for `C[C@H](CO)N1C[C@H](C)[C@H](CN(C)S(=O)(=O)c2cn(C)cn2)Oc2ccc(NC(=O)c3ccncc3)cc2CC1=O`, the growth inhibition call is “inactive”.
The value for `C[C@@H]1CN([C@H](C)CO)C(=O)c2cccc(NS(=O)(=O)c3ccc(F)cc3)c2O[C@@H]1CN(C)S(=O)(=O)c1ccccc1` was “inactive”.
Then `C[C@H]1CN([C@@H](C)CO)C(=O)c2cc(NC(=O)CCCN(C)C)ccc2O[C@H]1CN(C)S(=O)(=O)c1cccs1`, with “inactive”; and `C[C@@H]1CCCCO[C@@H](CN(C)C(=O)Nc2ccccc2)[C@@H](C)CN([C@H](C)CO)C(=O)c2cc(NS(=O)(=O)c3cccs3)ccc2O1`, with “inactive”; and `C[C@@H]1CN([C@H](C)CO)C(=O)c2cc(NC(=O)C3CC3)ccc2O[C@H]1CN(C)S(=O)(=O)c1cccs1`, with “inactive”.
Then `CC(=O)N(O)CCCCCNC(=O)CCC(=O)N(O)CCCCCNC(=O)CCC(=O)N(O)CCCCCN`, with “inactive”; and `CN(C)CCCNC(=O)C[C@H]1C=C[C@H](NC(=O)Cc2cccnc2)[C@H](CO)O1`, with “inactive”; and `Cc1ccc(S(=O)(=O)Nc2ccc3c(c2)C(=O)N([C@H](C)CO)C[C@@H](C)[C@H](CN(C)C(=O)Nc2ccc4c(c2)OCO4)OCCCC[C@@H](C)O3)cc1`, with “inactive”.
In the case of `C[C@H](CO)N1C[C@H](C)[C@@H](CN(C)S(=O)(=O)c2cccs2)Oc2c(NS(=O)(=O)c3ccccc3)cccc2C1=O`, the growth inhibition call was “inactive”.
Take `CN1C(=O)c2cc(NC(=O)c3cscn3)ccc2OC[C@H]2O[C@@H](CC(=O)N3CCOCC3)CC[C@H]21`: the growth inhibition call is “inactive”.
The value for `CCCOc1ccnc2c1c(=O)n(C)c(=O)n2C` was “inactive”.
The value for `C[C@H](CO)N1C[C@H](C)[C@@H](CN(C)C(=O)C2CCCCC2)OCCCC[C@H](C)Oc2ccc(NC(=O)CCC(F)(F)F)cc2C1=O` was “inactive”.
Then `CCCNC(=O)N1C[C@@H]2[C@H](c3ccccc31)[C@H](CO)N2C(=O)CN1CCOCC1`, with “inactive”; and `C[C@@H]1CCCCO[C@@H](CN(C)S(=O)(=O)c2cn(C)cn2)[C@H](C)CN([C@H](C)CO)C(=O)c2cc(NS(=O)(=O)c3ccccc3)ccc2O1`, with “inactive”; and `Cc1noc(C)c1NC(=O)Nc1ccc2c(c1)C(=O)N([C@@H](C)CO)C[C@H](C)[C@H](CN(C)Cc1ccncc1)OCCCC[C@H](C)O2`, with “inactive”.
For the compound `CNC[C@@H]1OCCCC[C@@H](C)Oc2ccc(NC(=O)Nc3ccc(C(F)(F)F)cc3)cc2C(=O)N([C@@H](C)CO)C[C@@H]1C`, the growth inhibition call was “inactive”.
Then `CO[C@@H](CN(C)S(=O)(=O)c1ccc(F)cc1)[C@@H](C)CN([C@H](C)CO)S(=O)(=O)c1cccc(Cl)c1`, with “inactive”; and `CC(C)(C)[S@@](=O)N1Cc2cc(C(=O)NCc3ccc4c(c3)OCO4)nc(CCN3CCOCC3)c2[C@H]1CCO`, with “inactive”; and `C[C@@H]1CN([C@H](C)CO)C(=O)Cc2cc(NC(=O)CCC(F)(F)F)ccc2O[C@@H]1CN(C)Cc1ccc(Oc2ccccc2)cc1`, with “inactive”.
Then `C[C@H](CO)N1C[C@H](C)[C@@H](CN(C)C(=O)Nc2ccc(C(F)(F)F)cc2)OCCCC[C@H](C)Oc2ccc(NC(=O)Cc3ccccc3)cc2C1=O`, with “inactive”; and `O=C(Cn1c(=O)n(-c2ccccc2)c(=O)n1CC(=O)N1CCOCC1)N1CCOCC1`, with “inactive”.
